In publication PMC2727917 (Molecular cell, 2009):

Biological target: (His)6-UBC9 (UniProt P63279)
Test: pull-down

B1: GST-SUMO-1 (natural protein)
chain: not shown
binding result: binds
